The values that follow come from PubChem BioAssay AID1963870 (Molecular Pharmacology Branch, DTP, NCI, 2024).

This assay concerns 292921-168-R-J2-PDC KRAS tumor spheroid viability. Put plainly: Anticancer human tumor 292921-168-R-J2-PDC patient-derived pancreatic carcinoma cell line growth inhibition [KRAS2]. To be noted: for viability, T/C: stronger effect = lower value; for IC50: compound alone. From the text:
Multicellular complex tumor spheroid response to RAS pathway inhibitors in combination with a targeted agents in patient-derived cell lines with oncogenic KRAS variants from multiple cancer types
A high-throughput screen of multi-cell type tumor spheroids was designed to identify active combinations of targeted small molecules and KRAS pathway inhibitors. Complex spheroids include a stromal component modeled by human endothelial cells (HUVEC) and fibroblasts modeled by human mesenchymal stem cells (MSCs). The concentration ranges selected for each drug and investigational agent were based upon clinically achievable concentrations if the clinical Cmax of the agent was known.
Compounds. The drugs and investigational agents: BI-3406 (NSC825286), BAY-293 (NSC824723), batoprotafib (TNO155; NSC825523), sotorasib (AMG 510; NSC818433), MRTX1257 (NSC819558), elimusertib (BAY 1895344; NSC800525), molibresib (GSK525762; NSC774829), temuterkib (LY3214996; NSC803410), venetoclax (NSC766270), alisertib (NSC759677), olaparib (NSC753686), talazoparib (NSC767125), erdafitinib (NSC781556), ipatasertib (NSC767898), cabozantinib (NSC761068), nintedanib (NSC756659), abemaciclib (NSC768073), docetaxel (NSC628503), trametinib (NSC758246), and sapanisertib (NSC764658) were obtained from the National Cancer Institute (NCI) Developmental Therapeutics Program Chemical Repository. The FDA-approved anticancer drug set is available from the Developmental Therapeutics Program. […] The stock solutions were prepared in dimethyl sulfoxide (DMSO, Sigma-Aldrich, St. Louis, MO, cat. D2650) at 800-fold the tested concentration and stored at -70 degrees C prior to their use. All drugs and investigational agents were tested over a range starting from a high concentration at or near the clinical Cmax and decreasing in half-log increments. If the clinical Cmax for an agent had not been determined, the highest concentration tested was 10 microM.
Cell Culture. All cells were maintained in an incubator at 37 degrees C and 5% CO2 with 95% humidity. The PDC lines were cultured according to standard operating procedures established by the NCI PDMR (https://pdmr.cancer.gov/sops/default.htm). Briefly, all PDCs were thawed and cultured in Matrigel-coated flasks prepared with a working solution of 1X Ham's F-12 nutrient mix, without supplementation (Invitrogen, Waltham, MA, cat. 11765054), 100 U/mL penicillin-streptomycin (Invitrogen, cat. 15140122), and 2.5% Matrigel (Corning Inc., Corning, NY, cat. 354248) for the first three passages. All PDCs were cultured in complete DMEM/F-12 media containing advanced DMEM/F-12 (Invitrogen, cat. 12634028), 4.9% defined fetal bovine serum, heat inactivated (HyClone Laboratories Inc., Logan, UT, cat. SH30070.03HI), 389 ng/mL hydrocortisone (Sigma-Aldrich, cat. H4001), 9.7 ng/mL human EGF recombinant protein (Invitrogen, cat. PHG0313), 23.4 microg/mL adenine (Sigma-Aldrich, cat. A2786), 97.3 U/mL penicillin-streptomycin (Invitrogen, cat. 15140122), 1.9 mM L-glutamine (Invitrogen, cat. 25030081), and 9.7 microM Y-27632 dihydrochloride (Tocris Bioscience, Bristol, United Kingdom, cat. 1254). The PDCs were cultured in complete DMEM/F12 media without 9.7 microM Y-27632 dihydrochloride for at least two passages prior to the screen. The established cell line HOP-62 was cultured in RPMI 1640 medium, HEPES (Invitrogen, cat. 22400105) with 10% defined fetal bovine serum (HyClone Laboratories Inc., cat. SH30070.03) and 2 mM L-glutamine (Invitrogen, cat. 25030081). The pooled donor HUVEC were cultured in endothelial cell growth medium 2 (PromoCell, Heidelberg, Germany, cat. C-22011) and the hMSC were cultured in mesenchymal stem cell growth medium 2 (PromoCell, cat. C-28009). For all experiments, HUVEC and hMSC were used at passages </=5, while the malignant cell lines were used at passages </=15. […]

[1] abbreviates: compound alone 0.1 µM, spheroids with HUVEC and MSC.
Setting [2] is: compound alone 0.316 µM, spheroids with HUVEC and MSC.
[3] abbreviates: compound alone 1 µM, spheroids with HUVEC and MSC.
The mark [4] stands for this setting: compound alone 3.16 µM, spheroids with HUVEC and MSC.
The mark [5] stands for this setting: compound alone 0.0316 µM, spheroids with HUVEC and MSC.
The mark [6] stands for this setting: compound alone 10 µM, spheroids with HUVEC and MSC.

SMILES strings stand for the structures. A number of entries come with more than one value. This list holds those alone. The source may hold further records. Results that share an entry repeat one measurement across runs, samples, wells, individuals or studies. Marks such as [2022-09] give the month of the run. Additions like (4×) count equal records among those shown.

What is called IC50 is the concentration at which inhibition is half-maximal.
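Further: drug exposure lasted seven days after spheroids formed for three days.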
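Wherever viability, T/C is given: percent of DMSO vehicle control viability which is 100%.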

On to `O=C(c1cc(Cc2n[nH]c(=O)c3ccccc23)ccc1F)N1CCN(C(=O)C2CC2)CC1`, for which the viability, T/C reads like this: under setting [1], 74.3, 86.5, 94.3, 102, 94.5%; under setting [2], 83.6, 81.4, 102, 107, 110%; under setting [3], 85.9, 90.2, 108, 113, 102%; under setting [4], 65.1, 74.4, 75, 104, 94.2%.

In the case of `CC(C)n1nc(-c2ccc3oc(N)nc3c2)c2c(N)ncnc21`, the viability, T/C (compound alone 0.000316 µM, spheroids with HUVEC and MSC) is reported as 105, 75.7, 83.5, 82.9, 82.2%.

In the case of `COC(=O)c1ccc2c(C(=Nc3ccc(N(C)C(=O)CN4CCN(C)CC4)cc3)c3ccccc3)c(O)[nH]c2c1`, the viability, T/C runs as follows: under setting [5], 62.7, 57.1, 95, 96.4, 97.6%; under setting [1], 57.8, 38, 74.9, 82.6, 88.7%; under setting [2], 22.3, 17.2, 67, 60.1, 68.3%; under setting [3], 21.1, 13.9, 37.5, 45.9, 39.9%. In addition, where the note is “spheroids with HUVEC and MSC”, the IC50 was 106, 46.6, 645, 575, 622 nM.

Consider `COc1cc2nc(C)nc(NC(C)c3cc(N)cc(C(F)(F)F)c3)c2cc1OC1CCOC1` (stereo not given), for which the IC50 is, setting by setting: (combination, run of 08/19/2021) > 10 µM, 8.72 µM, 5.04 µM, 3.86 µM; (run of 08/26/2021, spheroids with HUVEC and MSC) > 10 µM, 7.14 µM, 6.64 µM, 5.23 µM, 4.84 µM. Moreover, the viability, T/C was 105, 109, 119, 132, 101 (3×), 94.6, 92.3, 98.9, 96.3% [2021-08] and 91.3, 87.5, 83, 88.2, 93.8% [2021-09] under setting [1]; 72, 90.7, 112 (2×), 98.8, 91.5, 93.4, 93.7, 95.9, 83.1, 95.4% [2021-08] and 79, 85.5, 80.8, 78.3, 90.3% [2021-09] under setting [2]; 71.1, 65.8, 126, 81.7, 82.3, 72.8, 93, 93.4, 82.8, 77, 91.8% [2021-08] and 78.5, 68.1, 71.2, 73, 79.3% [2021-09] under setting [3]; 76.5, 62.1, 86.7, 79.7, 69, 59.3, 72, 79.5, 76.1, 64.4, 66.2% [2021-08] and 62, 64.4, 58.4, 61.6, 55.4% [2021-09] under setting [4]; 61.3, 62.7, 75, 43.4, 25.2, 18.5, 55.6, 37.8, 36.6, 34.8, 22.4% [2021-08] and 24.4, 24.2, 26.3, 27.5, 27.2% [2021-09] under setting [6].

Turning to `C=CC(=O)N1CCN(c2nc(OCC3CCCN3C)nc3c2CCN(c2cccc4cccc(C)c24)C3)CC1CC#N` (stereo not given), the IC50 (combination, run of 08/19/2021) was > 3.16 µM, 1.33 µM, 500 nM, < 31.6 nM, 794 nM, 728 nM. Also, the viability, T/C reads like this: under setting [5], 57.3, 104, 113, 27.5, 101 (3×), 107 (2×), 102, 98.3% [2021-08] and 101, 97.5, 93.2, 110, 96.4% [2021-09]; under setting [1], 97.8, 92.4, 88.8, 23.5, 99.4, 98.2, 97.7, 98.9, 99.8, 90.5, 111% [2021-08] and 94.4, 82.4, 80.7, 93.2, 91.6% [2021-09]; under setting [2], 58.8, 82.3, 54.2, 22.8, 83, 80.5, 86.2, 81.4, 87.4, 89.2, 97.2% [2021-08] and 105, 76.3, 78, 79.5, 74.2% [2021-09]; under setting [3], 66.4, 70.2, 46.7, 18.5, 41.8, 38.4, 41.2, 38.6, 62.9, 50.2, 40.2% [2021-08] and 45.3, 38.1, 30.1, 32.6, 28.9% [2021-09]; under setting [4], 117, 0.33, 0.46, 0.14, 0.13, 0.1, 0.38, 0.48, 0.98, 0.45, 1.2% [2021-08] and 0.19, 0.14, 0.11, 0.2% [2021-09].

On to `CC1OCC2(CCN(c3cnc(Sc4ccnc(N)c4Cl)c(N)n3)CC2)C1N` (stereo not given), for which the IC50 (combination, run of 08/19/2021) is listed as < 100 nM, 5.4 µM, 10 µM, > 10 µM, 714 nM, 1.25 µM. The viability, T/C by setting is: under setting [1], 19.3, 81.4, 90.6, 76.4, 76.8, 73.7, 82.7, 80.8, 79.7, 82.5, 83.2% [2021-08] and 69.5, 71.4, 71.7, 72.9, 69.8, 76.3, 74.9, 72.3% [2021-09]; under setting [2], 23.4, 58.1, 80.8, 66.8, 62.6, 67.2, 55.8, 59.6, 59.7, 63.7, 65.6% [2021-08] and 52.5, 59, 62.1, 52.3, 47.7, 60.4, 52.9, 55.4% [2021-09]; under setting [3], 25.4, 78.5, 137, 75.9, 45.7, 52.6, 44, 45.9, 43.6, 49, 50.9% [2021-08] and 45.3, 48.2, 45.7, 46.4, 44.9, 44.2, 42.6, 44.6% [2021-09]; under setting [4], 19.4, 29.7, 49.2, 70, 34.5, 39.6, 33.4, 37, 36, 41.6, 41% [2021-08] and 35.4, 35.9, 36.1, 36.2, 31.5, 34.6, 33.4, 35% [2021-09]; under setting [6], 21.7, 56.9, 55.5, 62, 36.5, 35.4, 31, 33.5, 28.1, 31.4, 33.3% [2021-08] and 27.9, 28.3, 30.6, 31.8, 29.1, 33.3, 30.8, 31.4, 32.4% [2021-09].

For `COc1cc2nccc(Oc3ccc(NC(=O)C4(C(=O)Nc5ccc(F)cc5)CC4)cc3)c2cc1OC`, the viability, T/C under setting [3] was 77.7, 79.1, 69.2, 99.2, 83.5%.

With `CNCc1ccccc1-c1csc(C(C)Nc2nc(C)nc3cc(OC)c(OC)cc23)c1` (stereo not given), the IC50 (combination, run of 08/19/2021) is 5.75, 1.7, 1.49, 1.45, 1.36, 1.28 µM. The viability, T/C was 67.6, 96.3, 104, 110, 99.6 (2×), 97.7, 101, 92.6, 93.2, 92.3% [2021-08] and 85.8, 91, 87.4, 88.3, 83.8% [2021-09] under setting [1]; 118, 92.5, 76, 73.5, 68.1, 63.7, 63.4, 74.4, 63.2, 61.2, 78% [2021-08] and 67.3, 68.8, 69.8, 57.5, 61.5% [2021-09] under setting [3]; 132, 0.2, 0.1, 0.21, 0.12 (2×), 0.08 (2×), 0.14, 0.44% [2021-08] and 0.14, 0.12, 0.07, 0.1% [2021-09] under setting [4].

For the compound `C=CC(=O)N1CCN(c2nc(=O)n(-c3c(C)ccnc3C(C)C)c3nc(-c4c(O)cccc4F)c(F)cc23)C(C)C1` (stereo not given), under “combination, run of 08/19/2021”, the IC50 is 7.2 µM, 5.55 µM, 3.5 µM, < 100 nM, 5.29 µM, 8.35 µM. In addition, the viability, T/C reads like this: under setting [1], 120, 108, 96.9, 49.9, 101, 119, 107, 116, 104 (2×), 110% [2021-08] and 108, 109 (2×), 104, 106, 110% [2021-09]; under setting [2], 120 (2×), 89.4, 45.5, 95, 134, 111, 121, 115, 103, 112% [2021-08] and 105, 112, 84.3, 103, 115, 119% [2021-09]; under setting [3], 98.5, 112, 80.3, 42.7, 92.4, 140, 109, 115, 108 (2×), 103% [2021-08] and 109, 110, 98.3, 97.4, 111, 122% [2021-09]; under setting [4], 72.7, 74.5, 51.6, 51.3, 69.2, 94.5, 70.9, 64.5, 85, 77.5, 65.6% [2021-08] and 70, 76, 71.6, 73.4, 76.1, 72.7% [2021-09]; under setting [6], 41.1, 24.3 (2×), 28.2, 47.2, 26.1, 41.7, 28.9, 27.2, 21.3, 18.1% [2021-08] and 25, 26.4, 22.1, 24.1, 25.9, 24.5% [2021-09].
